The target in assay [1] is T1, Dpb11 bait (pEG202-DPB11) (S. cerevisiae) (UniProt P47027).
T1 sequence: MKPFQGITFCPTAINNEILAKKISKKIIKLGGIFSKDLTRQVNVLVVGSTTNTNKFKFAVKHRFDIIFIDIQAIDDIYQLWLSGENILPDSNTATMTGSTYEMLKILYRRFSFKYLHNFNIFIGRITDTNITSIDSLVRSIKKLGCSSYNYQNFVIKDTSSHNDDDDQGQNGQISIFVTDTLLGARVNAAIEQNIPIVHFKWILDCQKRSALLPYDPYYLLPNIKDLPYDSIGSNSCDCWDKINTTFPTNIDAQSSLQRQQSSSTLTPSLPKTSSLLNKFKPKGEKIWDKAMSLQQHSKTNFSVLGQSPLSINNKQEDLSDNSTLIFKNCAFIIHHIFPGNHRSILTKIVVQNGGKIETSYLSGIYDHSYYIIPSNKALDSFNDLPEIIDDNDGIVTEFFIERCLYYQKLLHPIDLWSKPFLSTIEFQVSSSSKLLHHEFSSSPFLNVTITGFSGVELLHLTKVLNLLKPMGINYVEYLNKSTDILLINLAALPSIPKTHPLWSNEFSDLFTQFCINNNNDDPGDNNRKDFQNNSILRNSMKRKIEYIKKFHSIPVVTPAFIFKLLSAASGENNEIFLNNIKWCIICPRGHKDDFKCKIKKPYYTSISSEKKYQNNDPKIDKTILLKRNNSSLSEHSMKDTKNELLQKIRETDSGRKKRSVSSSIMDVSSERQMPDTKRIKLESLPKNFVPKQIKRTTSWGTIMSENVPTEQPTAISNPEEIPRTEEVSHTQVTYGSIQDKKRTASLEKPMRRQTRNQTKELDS
The assay can be described thus: two-hybrid; B42/lexA system, lacZ reporter, β-galactosidase (ONPG) on extracts; cells arrested in M (nocodazole) or G1 (α-factor), galactose induction 1 h; strain EGY42, also wt (K699) and cdc28-as1 (JAU01) backgrounds, the latter with or without 5 µM 1NMPP1.

Assay [2] addresses T2, Dpb11-MYC (S. cerevisiae) (UniProt P47027).
T2 sequence: T1 sequence
The assay can be described thus: co-IP; anti-MYC (9E11) immunoprecipitation of Dpb11-MYC from whole cell extract of nocodazole-arrested cells treated with 150 µg/ml zeocin for 30 min; Rad9 detected by Western blot; 4°C.

The target in assay [3] is T2, Dpb11-MYC (S. cerevisiae). The assay can be described thus: co-IP; anti-MYC (9E11) immunoprecipitation of Dpb11-MYC from whole cell extract of nocodazole-arrested, mock treated cells (no zeocin); Rad9 detected by Western blot; 4°C.

Numbering of substitutions follows the chain as printed. Names may count otherwise. No constants are given. Whether binding was seen depends on the method and setting. For some assays here: Binding seen in cells or lysates may run through a third protein. Some binding calls cover weakened binding; strength is not graded here. For some assays here: Where a sequence is shown, tags or fusion partners need not be part of it.

B1: Rad9ΔNT prey (pMAG9) (domain or fragment, UniProt P14737 232-1309)
chain: MQDERVQKTQIMISAESPNSISSYDKNKITGNGRTTRNVNKVFNNNEDNIGAIEEKNPVKKKSENYSSDDLRERNNQIIQSNESEEINELEKNLNVSGRENDVNNLDIDINSAVSGTPSRNNAEEEMYSSESVNNREPSKKWIFRYSKDKTENNSNRSTQIVNNPRTQEMPLDSISIDTQPLSKSFNTETNNELETQIIVSSLSQGISAQKGPVFHSTGQTEEIKTQIINSPEQNALNATFETPVTLSRINFEPILEVPETSSPSKNTMSKPSNSSPIPKEKDTFNIHEREVETNNVFSNDIQNSSNAATRDDIIIAGSSDFNEQKEITDRIYLQLSGKQISDSGSDETERMSPNELDTKKESTIMSEVELTQELPEVEEQQDLQTSPKKLVVEEETLMEIKKSKGNSLQLHDDNKECNSDKQDGTESLDVALIEHESKGQSSELQKNLMQLFPSESQEIIQNRRTIKRRQKDTIEIGEEEENRSTKTSPTKHLKRNSDLDAASIKREPSCSITIQTGETGSGKDSKEQSYVFPEGIRTADNSFLSKDDIIFGNAVWCQYTWNYKFYPGILLEVDTNQDGCWIYFETGRSLTKDEDIYYLDIRIGDAVTFDGNEYVVVGLECRSHDLNIIRCIRGYDTVHLKKKNASGLLGKRTLIKALSSISLDLSEWAKRAKIILEDNEKNKGDAYRYLRHPIRGRKSMTNVLSPKKHTDDEKDINTHTEVYNNEIESSSEKKEIVKKDSRDALAEHAGAPSLLFSSGEIRTGNVFDKCIFVLTSLFENREELRQTIESQGGTVIESGFSTLFNFTHPLAKSLVNKGNTDNIRELALKLAWKPHSLFADCRFACLITKRHLRSLKYLETLALGWPTLHWKFISACIEKKRIVPHLIYQYLLPSGESFRLSLDSPSKGGIIKSNNIFSFYTQFLRGSNLRDQICGVKKMLNDYIVIVWGRSELDSFVKFAFACLSAGRMLTIDLPNIDVDDTEPLLNALDSLVPRIGSELSNRKLKFLIYANENNGKSQMKLLERLRSQISLKFKKFNYIFHTESKEWLIQTIINEDTGFHDDITDNDIYNTISEVR
For the molecule B1, the binding entry in assay [1] is recorded as “binds”.

B2: Rad9 prey (pJG4-5-RAD9) (protein, UniProt P14737 1-1309)
chain: MSGQLVQWKSSPDRVTQSAIKEALHSPLADGDMNEMNVPVDPLENKVNSTNIIEGSPKANPNPVKFMNTSEIFQKSLGLLDESPRHDDELNIEVGDNDRPNANILHNERTPDLDRIANFFKSNRTPGKENLLTKYQSSDLEDTPLMLRKKMTFQTPTDPLEQKTFKKLKSDTGFCYYGEQNDGEENASLEVTEADATFVQMAERSADNYDCALEGIVTPKRYKDELSKSGGMQDERVQKTQIMISAESPNSISSYDKNKITGNGRTTRNVNKVFNNNEDNIGAIEEKNPVKKKSENYSSDDLRERNNQIIQSNESEEINELEKNLNVSGRENDVNNLDIDINSAVSGTPSRNNAEEEMYSSESVNNREPSKKWIFRYSKDKTENNSNRSTQIVNNPRTQEMPLDSISIDTQPLSKSFNTETNNELETQIIVSSLSQGISAQKGPVFHSTGQTEEIKTQIINSPEQNALNATFETPVTLSRINFEPILEVPETSSPSKNTMSKPSNSSPIPKEKDTFNIHEREVETNNVFSNDIQNSSNAATRDDIIIAGSSDFNEQKEITDRIYLQLSGKQISDSGSDETERMSPNELDTKKESTIMSEVELTQELPEVEEQQDLQTSPKKLVVEEETLMEIKKSKGNSLQLHDDNKECNSDKQDGTESLDVALIEHESKGQSSELQKNLMQLFPSESQEIIQNRRTIKRRQKDTIEIGEEEENRSTKTSPTKHLKRNSDLDAASIKREPSCSITIQTGETGSGKDSKEQSYVFPEGIRTADNSFLSKDDIIFGNAVWCQYTWNYKFYPGILLEVDTNQDGCWIYFETGRSLTKDEDIYYLDIRIGDAVTFDGNEYVVVGLECRSHDLNIIRCIRGYDTVHLKKKNASGLLGKRTLIKALSSISLDLSEWAKRAKIILEDNEKNKGDAYRYLRHPIRGRKSMTNVLSPKKHTDDEKDINTHTEVYNNEIESSSEKKEIVKKDSRDALAEHAGAPSLLFSSGEIRTGNVFDKCIFVLTSLFENREELRQTIESQGGTVIESGFSTLFNFTHPLAKSLVNKGNTDNIRELALKLAWKPHSLFADCRFACLITKRHLRSLKYLETLALGWPTLHWKFISACIEKKRIVPHLIYQYLLPSGESFRLSLDSPSKGGIIKSNNIFSFYTQFLRGSNLRDQICGVKKMLNDYIVIVWGRSELDSFVKFAFACLSAGRMLTIDLPNIDVDDTEPLLNALDSLVPRIGSELSNRKLKFLIYANENNGKSQMKLLERLRSQISLKFKKFNYIFHTESKEWLIQTIINEDTGFHDDITDNDIYNTISEVR
On to B2, for which the binding entry in assay [1] is “binds”.

B3: Rad9-S11A mutant protein (protein, UniProt P14737 1-1309)
chain: B2 chain with S11A
As to B3, in assay [2], the binding entry is “no binding”.

B4: Rad9 (endogenous) (protein, UniProt P14737 1-1309)
chain: B2 chain
Turning to B4, the values for the binding result in assay [2] and in assay [3] were “binds” and “no binding (condition: mock treated cells (no zeocin))”, respectively.

These data come from publication PMC2916856.
